The list shows a part of the results.
Assays:
Assay in all cases: glycan array binding signal (z-score within array); higher = stronger binding
Conditions in all cases: glycan notation: IUPAC condensed, linker removed
[1] = biological target: Gal(b1-4)GlcNAc(b1-3)Gal(b1-4)GlcNAc(b1-3)Gal(b1-4)GlcNAc(b1-3)Gal(b1-4)GlcNAc(b1-2)Man(a1-3)[Gal(b1-4)GlcNAc(b1-3)Gal(b1-4)GlcNAc(b1-3)Gal(b1-4)GlcNAc(b1-3)Gal(b1-4)GlcNAc(b1-2)Man(a1-6)]Man(b1-4)GlcNAc(b1-4)GlcNAc
How it was run: (§1)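 Glycan array data came from 3228 arrays in the Consortium for Functional Glycomics database, and only arrays with an available protein sequence were kept. Glycan names were put into IUPAC-condensed notation, and columns mapping to the same glycan were averaged. The binding signal is a within-array Z-score, averaged across arrays of one protein sequence run at different concentrations or buffers and across linkers. A negative Z-score can be read as non-binding.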

[2] = biological target: Gal(b1-4)GlcNAc(b1-3)Gal(b1-4)GlcNAc(b1-3)Gal(b1-4)GlcNAc(b1-3)Gal(b1-4)GlcNAc(b1-2)Man(a1-3)[Gal(b1-4)GlcNAc(b1-3)Gal(b1-4)GlcNAc(b1-3)Gal(b1-4)GlcNAc(b1-3)Gal(b1-4)GlcNAc(b1-2)Man(a1-6)]Man(b1-4)GlcNAc(b1-4)[Fuc(a1-6)]GlcNAc
How it was run: as §1

[3] = biological target: Gal(b1-4)GlcNAc(b1-3)Gal(b1-4)GlcNAc(b1-3)Gal(b1-4)GlcNAc(b1-3)Gal(b1-4)GlcNAc(b1-2)[Gal(b1-4)GlcNAc(b1-3)Gal(b1-4)GlcNAc(b1-3)Gal(b1-4)GlcNAc(b1-3)Gal(b1-4)GlcNAc(b1-6)]Man(a1-6)[Gal(b1-4)GlcNAc(b1-3)Gal(b1-4)GlcNAc(b1-3)Gal(b1-4)GlcNAc(b1-3)Gal(b1-4)GlcNAc(b1-2)Man(a1-3)]Man(b1-4)GlcNAc(b1-4)[Fuc(a1-6)]GlcNAc
How it was run: as §1

[4] = biological target: Gal(b1-4)GlcNAc(b1-3)Gal(b1-4)GlcNAc(b1-3)Gal(b1-4)GlcNAc(b1-3)Gal(b1-4)GlcNAc(b1-3)Gal(b1-4)GlcNAc(b1-2)Man(a1-3)[Gal(b1-4)GlcNAc(b1-3)Gal(b1-4)GlcNAc(b1-3)Gal(b1-4)GlcNAc(b1-3)Gal(b1-4)GlcNAc(b1-3)Gal(b1-4)GlcNAc(b1-2)Man(a1-6)]Man(b1-4)GlcNAc(b1-4)GlcNAc
How it was run: as §1

[5] = biological target: Gal(b1-4)GlcNAc(b1-3)Gal(b1-4)GlcNAc(b1-3)Gal(b1-4)GlcNAc(b1-3)Gal(b1-4)GlcNAc(b1-3)Gal(b1-4)GlcNAc(b1-2)Man(a1-3)[Gal(b1-4)GlcNAc(b1-3)Gal(b1-4)GlcNAc(b1-3)Gal(b1-4)GlcNAc(b1-3)Gal(b1-4)GlcNAc(b1-3)Gal(b1-4)GlcNAc(b1-2)Man(a1-6)]Man(b1-4)GlcNAc(b1-4)[Fuc(a1-6)]GlcNAc
How it was run: as §1

[6] = biological target: Gal(b1-4)GlcNAc(b1-3)Gal(b1-4)GlcNAc(b1-3)Gal(b1-4)GlcNAc(b1-3)Gal(b1-4)GlcNAc(b1-3)Gal(b1-4)GlcNAc(b1-2)[Gal(b1-4)GlcNAc(b1-3)Gal(b1-4)GlcNAc(b1-3)Gal(b1-4)GlcNAc(b1-3)Gal(b1-4)GlcNAc(b1-3)Gal(b1-4)GlcNAc(b1-6)]Man(a1-6)[Gal(b1-4)GlcNAc(b1-3)Gal(b1-4)GlcNAc(b1-3)Gal(b1-4)GlcNAc(b1-3)Gal(b1-4)GlcNAc(b1-3)Gal(b1-4)GlcNAc(b1-2)Man(a1-3)]Man(b1-4)GlcNAc(b1-4)[Fuc(a1-6)]GlcNAc
How it was run: as §1

[7] = biological target: Gal(b1-4)GlcNAc(b1-3)Gal(b1-4)GlcNAc(b1-3)Gal(b1-4)GlcNAc(b1-3)Gal(b1-4)GlcNAc(b1-3)Gal(b1-4)GlcNAc(b1-3)Gal(b1-4)GlcNAc(b1-2)Man(a1-3)[Gal(b1-4)GlcNAc(b1-3)Gal(b1-4)GlcNAc(b1-3)Gal(b1-4)GlcNAc(b1-3)Gal(b1-4)GlcNAc(b1-3)Gal(b1-4)GlcNAc(b1-3)Gal(b1-4)GlcNAc(b1-2)Man(a1-6)]Man(b1-4)GlcNAc(b1-4)GlcNAc
How it was run: as §1

[8] = biological target: Gal(b1-4)GlcNAc(b1-3)Gal(b1-4)GlcNAc(b1-3)GalNAc
How it was run: as §1

[9] = biological target: Gal(b1-4)GlcNAc(b1-3)Gal(b1-4)GlcNAc(b1-3)[Gal(b1-4)GlcNAc(b1-3)Gal(b1-4)GlcNAc(b1-6)]GalNAc
How it was run: as §1

[10] = biological target: Gal(b1-4)GlcNAc(b1-3)Gal(b1-4)GlcNAc(b1-6)[Gal(b1-3)]GalNAc
How it was run: as §1

[11] = biological target: Gal(b1-4)GlcNAc(b1-3)Gal(b1-4)[Fuc(a1-3)]GlcNAc(b1-3)Gal(b1-4)[Fuc(a1-3)]GlcNAc
How it was run: as §1

[12] = biological target: Gal(b1-4)GlcNAc(b1-3)GalNAc
How it was run: as §1

[13] = biological target: Gal(b1-4)GlcNAc(b1-3)[Fuc(a1-3)GlcNAc(b1-6)]Gal(b1-4)Glc
How it was run: as §1

[14] = biological target: Gal(b1-4)GlcNAc(b1-3)[Gal(b1-4)GlcNAc(b1-6)]Gal(b1-4)GlcNAc
How it was run: as §1

[15] = biological target: Gal(b1-4)GlcNAc(b1-3)[GlcNAc(b1-6)]Gal(b1-4)GlcNAc
How it was run: as §1

[16] = biological target: Gal(b1-4)GlcNAc(b1-6)Gal(b1-4)GlcNAc
How it was run: as §1

[17] = biological target: Gal(b1-4)GlcNAc(b1-6)GalNAc
How it was run: as §1

[18] = biological target: Gal(b1-4)GlcNAc(b1-6)[Gal(b1-3)]GalNAc
How it was run: as §1

[19] = biological target: Gal(b1-4)GlcNAc(b1-6)[Gal(b1-4)GlcNAc(b1-3)]GalNAc
How it was run: as §1

Gal(b1-4)GlcNAc6P = biological target: Gal(b1-4)GlcNAc6P
How it was run: as §1

Gal(b1-6)Gal = biological target: Gal(b1-6)Gal
How it was run: as §1

Gal3S(b1-3)GalNAc = biological target: Gal3S(b1-3)GalNAc
How it was run: as §1

Gal3S(b1-3)GlcNAc = biological target: Gal3S(b1-3)GlcNAc
How it was run: as §1

B1: Als3-N (Candida albicans) (protein)
chain: KTITGVFNSFNSLTWSNAATYNYKGPGTPTWNAVLGWSLDGTSASPGDTFTLNMPCVFKFTTSQTSVDLTAHGVKYATCQFQAGEEFMTFSTLTCTVSNTLTPSIKALGTVTLPLAFNVGGTGSSVDLEDSKCFTAGTNTVTFNDGGKKISINVDFERSNVDPKGYLTDSRVIPSLNKVSTLFVAPQCANGYTSGTMGFANTYGDVQIDCSNIHVGITKGLNDWNYPVSSESFSYTKTCSSNGIFITYKNVPAGYRPFVDAYISATDVNSYTLSYANEYTCAGGYWQRAPFTLRWTGYRNSDAGSNGIVIVATTRTVTDSTTAVTTLPFDPNRDKTKTIEILKPIPTTTITTSYVGVTTSYLTKTAPIGETATVIVDIPYHTTTTVTSKWTGTITSTTTHTNPTDSIDTVIVQVP
Which results are given for B1?
glycan array binding signal (z-score) [1]: 0.309; glycan array binding signal (z-score) [2]: -0.002; glycan array binding signal (z-score) [3]: 0.608; glycan array binding signal (z-score) [4]: 0.396; glycan array binding signal (z-score) [5]: -0.009; glycan array binding signal (z-score) [6]: 0.198; glycan array binding signal (z-score) [7]: 0.023; glycan array binding signal (z-score) [8]: 0.259; glycan array binding signal (z-score) [9]: 1.05; glycan array binding signal (z-score) [10]: 0.43; glycan array binding signal (z-score) [11]: -0.321; glycan array binding signal (z-score) [12]: -0.27; glycan array binding signal (z-score) [13]: -0.243; glycan array binding signal (z-score) [14]: 0.09; glycan array binding signal (z-score) [15]: -0.129; glycan array binding signal (z-score) [16]: -0.106; glycan array binding signal (z-score) [17]: -0.09; glycan array binding signal (z-score) [18]: -0.219; glycan array binding signal (z-score) [19]: -0.067; glycan array binding signal (z-score) (Gal(b1-4)GlcNAc6P): -0.299; glycan array binding signal (z-score) (Gal(b1-6)Gal): -0.155; glycan array binding signal (z-score) (Gal3S(b1-3)GalNAc): -0.254; glycan array binding signal (z-score) (Gal3S(b1-3)GlcNAc): -0.068

Reference: the supplement of paper PMC8728848
